The target of experiment [1] is Danio rerio Clcc1 with a C-terminal Strep-FLAG-Strep tag (Danio rerio). Briefly: co-IP.
The target of experiment [2] is T1, human CLCC1 with a C-terminal Strep-FLAG-Strep tag (human) (UniProt Q96S66).
T1 sequence: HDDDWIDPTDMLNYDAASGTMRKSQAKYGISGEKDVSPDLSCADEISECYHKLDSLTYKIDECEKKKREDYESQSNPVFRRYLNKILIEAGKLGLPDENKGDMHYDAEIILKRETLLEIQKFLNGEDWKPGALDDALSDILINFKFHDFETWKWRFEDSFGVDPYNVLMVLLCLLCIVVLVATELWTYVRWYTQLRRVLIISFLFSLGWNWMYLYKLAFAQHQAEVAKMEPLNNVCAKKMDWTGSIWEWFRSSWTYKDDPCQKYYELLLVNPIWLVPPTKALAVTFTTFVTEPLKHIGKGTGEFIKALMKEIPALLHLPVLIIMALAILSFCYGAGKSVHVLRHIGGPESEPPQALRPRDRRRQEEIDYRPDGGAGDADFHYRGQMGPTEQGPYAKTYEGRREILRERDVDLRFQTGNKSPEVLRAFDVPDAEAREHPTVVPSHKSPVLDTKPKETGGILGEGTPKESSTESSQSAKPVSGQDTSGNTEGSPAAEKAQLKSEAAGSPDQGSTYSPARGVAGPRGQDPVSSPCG
Put plainly: co-IP.

The target in experiment [3] is T2, Myc-tagged human CLCC1 (human) (UniProt Q96S66).
T2 sequence: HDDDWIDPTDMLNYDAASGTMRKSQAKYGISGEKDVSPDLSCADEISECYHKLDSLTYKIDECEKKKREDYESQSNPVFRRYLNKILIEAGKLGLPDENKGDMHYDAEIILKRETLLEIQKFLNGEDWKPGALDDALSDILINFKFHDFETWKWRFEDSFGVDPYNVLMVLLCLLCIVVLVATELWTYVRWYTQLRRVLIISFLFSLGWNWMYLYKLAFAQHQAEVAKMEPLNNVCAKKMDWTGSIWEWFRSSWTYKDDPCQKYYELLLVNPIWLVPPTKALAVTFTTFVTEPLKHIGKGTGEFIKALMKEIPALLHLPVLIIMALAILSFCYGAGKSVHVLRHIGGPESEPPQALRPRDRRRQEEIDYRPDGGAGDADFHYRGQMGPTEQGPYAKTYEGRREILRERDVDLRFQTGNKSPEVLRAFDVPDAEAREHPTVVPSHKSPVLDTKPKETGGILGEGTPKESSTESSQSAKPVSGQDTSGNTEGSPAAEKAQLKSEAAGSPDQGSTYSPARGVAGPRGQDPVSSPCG
Briefly: co-IP.

Experiment [4] has as its target SARS-CoV-2 ORF3a expressed from trVLP infection (SARS-CoV-2) (UniProt P0DTC3). Put plainly: co-IP.
The target in experiment [5] is GFP-tagged SARS-CoV-2 ORF3a (SARS-CoV-2) (UniProt P0DTC3). Briefly: pull-down; both purified.
For experiment [6], the target named is FLAG-tagged SARS-CoV-2 ORF3a (SARS-CoV-2) (UniProt P0DTC3). Briefly: co-IP.
The target in experiment [7] is FLAG-tagged BtCoV HKU3 ORF3a (bat coronavirus BtCoV HKU3-1) (UniProt Q3LZX0). Put plainly: co-IP.
Experiment [8] has as its target EGFP-tagged SARS-CoV-2 ORF3a expressed in mouse brain (SARS-CoV-2) (UniProt P0DTC3). Put plainly: co-IP.

Results are given in words; binding and its absence hold for the method and conditions named. For part of these data: Binding seen in cells or lysates may run through a third protein. Some binding calls cover weakened binding; strength is not graded here. For part of these data: Sequences can lack the tags named with a protein.

As for “GFP-tagged SARS-CoV-2 ORF3a (from UniProt P0DTC3 1-275)”, the binding result in experiment [1] is listed as “no binding”; in experiment [2], “binds”.

In the case of “FLAG-tagged SARS-CoV-2 ORF3a (from UniProt P0DTC3 1-275)”, the binding entry in experiment [3] and in experiment [2] was “binds” each time.

B1: endogenous CLCC1 of Caco-2 cells (protein, UniProt Q96S66 19-551)
chain: HDDDWIDPTDMLNYDAASGTMRKSQAKYGISGEKDVSPDLSCADEISECYHKLDSLTYKIDECEKKKREDYESQSNPVFRRYLNKILIEAGKLGLPDENKGDMHYDAEIILKRETLLEIQKFLNGEDWKPGALDDALSDILINFKFHDFETWKWRFEDSFGVDPYNVLMVLLCLLCIVVLVATELWTYVRWYTQLRRVLIISFLFSLGWNWMYLYKLAFAQHQAEVAKMEPLNNVCAKKMDWTGSIWEWFRSSWTYKDDPCQKYYELLLVNPIWLVPPTKALAVTFTTFVTEPLKHIGKGTGEFIKALMKEIPALLHLPVLIIMALAILSFCYGAGKSVHVLRHIGGPESEPPQALRPRDRRRQEEIDYRPDGGAGDADFHYRGQMGPTEQGPYAKTYEGRREILRERDVDLRFQTGNKSPEVLRAFDVPDAEAREHPTVVPSHKSPVLDTKPKETGGILGEGTPKESSTESSQSAKPVSGQDTSGNTEGSPAAEKAQLKSEAAGSPDQGSTYSPARGVAGPRGQDPVSSPCG
Turning to B1, in experiment [4], the binding entry was “binds”.

B2: His10-tagged recombinant CLCC1 (protein, UniProt Q96S66 19-551)
chain: HDDDWIDPTDMLNYDAASGTMRKSQAKYGISGEKDVSPDLSCADEISECYHKLDSLTYKIDECEKKKREDYESQSNPVFRRYLNKILIEAGKLGLPDENKGDMHYDAEIILKRETLLEIQKFLNGEDWKPGALDDALSDILINFKFHDFETWKWRFEDSFGVDPYNVLMVLLCLLCIVVLVATELWTYVRWYTQLRRVLIISFLFSLGWNWMYLYKLAFAQHQAEVAKMEPLNNVCAKKMDWTGSIWEWFRSSWTYKDDPCQKYYELLLVNPIWLVPPTKALAVTFTTFVTEPLKHIGKGTGEFIKALMKEIPALLHLPVLIIMALAILSFCYGAGKSVHVLRHIGGPESEPPQALRPRDRRRQEEIDYRPDGGAGDADFHYRGQMGPTEQGPYAKTYEGRREILRERDVDLRFQTGNKSPEVLRAFDVPDAEAREHPTVVPSHKSPVLDTKPKETGGILGEGTPKESSTESSQSAKPVSGQDTSGNTEGSPAAEKAQLKSEAAGSPDQGSTYSPARGVAGPRGQDPVSSPCG
For the molecule B2, the binding entry in experiment [5] is listed as “binds”.

B3: endogenous CLCC1 of 293FT cells (protein, UniProt Q96S66 19-551)
chain: HDDDWIDPTDMLNYDAASGTMRKSQAKYGISGEKDVSPDLSCADEISECYHKLDSLTYKIDECEKKKREDYESQSNPVFRRYLNKILIEAGKLGLPDENKGDMHYDAEIILKRETLLEIQKFLNGEDWKPGALDDALSDILINFKFHDFETWKWRFEDSFGVDPYNVLMVLLCLLCIVVLVATELWTYVRWYTQLRRVLIISFLFSLGWNWMYLYKLAFAQHQAEVAKMEPLNNVCAKKMDWTGSIWEWFRSSWTYKDDPCQKYYELLLVNPIWLVPPTKALAVTFTTFVTEPLKHIGKGTGEFIKALMKEIPALLHLPVLIIMALAILSFCYGAGKSVHVLRHIGGPESEPPQALRPRDRRRQEEIDYRPDGGAGDADFHYRGQMGPTEQGPYAKTYEGRREILRERDVDLRFQTGNKSPEVLRAFDVPDAEAREHPTVVPSHKSPVLDTKPKETGGILGEGTPKESSTESSQSAKPVSGQDTSGNTEGSPAAEKAQLKSEAAGSPDQGSTYSPARGVAGPRGQDPVSSPCG
Take B3: the binding entry in experiment [6] and in experiment [7] was “binds” throughout.

B4: endogenous CLCC1 of mouse brain (protein, UniProt Q99LI2 19-539)
chain: HDDDWIDPTDMLNYDAASGTMRKSQVRSGTSEKKEVSPDSSEAEELSDCLHRLDSLTHKVDSCEKKKMKDYESQSNPVFRRYLNKILIEAGKLGLPDENKVEMRYDAEILLSRQTLLEIQKFLSGEEWKPGALDDALSDILINFKCHDSEAWKWQFEDYFGVDPYNVFMVLLCLLCLVVLVATELWTYVRWYTQMKRIFIISFLLSLAWNWIYLYKMAFAQHQANIAGMEPFDNLCAKKMDWTGSLWEWFTSSWTYKDDPCQKYYELLIVNPIWLVPPTKALAITFTNFVTEPLKHIGKGAGEFIKALMKEIPVLLQIPVLAILALAVLSFCYGAGRSVPMLRHFGGPDREPPRALEPDDRRRQKGLDYRLHGGAGDADFSYRGPAGSIEQGPYDKMHASKRDALRQRFHSGNKSPEVLRAFDLPDTEAQEHPEVVPSHKSPIMNTNLETGELPGESTPTEYSQSAKDVSGQVPSAGKSSPTVDKAQLKTDSECSPPGGCPPSKEAAVAAHGTEPVSSPCG
On to B4, for which the binding result in experiment [8] is on record as “binds”.

The values above are taken from article PMC13575168.
